# Test results: PubChem BioAssay AID624417 (National Center for Advancing Translational Sciences (NCATS), 2012)
# Screen size: about 410,000 compounds; about 6,400 (1.6%) were called active. Inconclusive results, whose numbers are uncertain, are shown with a selection of clear calls. The call rests on the fitted dose curve; in most records, active means well fitted inhibition curve with a large enough effect; inconclusive means small, poorly fitted or top-dose-only effect; inactive means no such curve, though single readings can be large or run the other way. Potencies of inconclusive entries are doubtful fits and often do not repeat.
# Target: Glucagon-like peptide 1 receptor (Homo sapiens) (UniProt P43220)
# Test: qHTS of GLP-1 Receptor Inverse Agonists (Inhibition Mode); further: nearly all actives have a fitted effect of over 55% in size
# Conditions: HEK293 GLP-1R CRE-luciferase, luminescence, 24 h, GLP-1R form is constitutively active; activity change, negative = inhibition: at 38.3 µM (top of the series) unless noted
# Summary of the method: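 Inverse agonists were sought by their lowering of basal cAMP reporter luciferase output in HEK293 cells stably carrying constitutively active human GLP-1R, after 24 h compound treatment.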
# On the % scale 0 is the no-effect control and ±100 the full control effect; potency means the concentration at half of the fitted maximal effect; tags describe the fitted curve by direction and shape.
# UniProt P43220, sequence (P43220 whole entry, looked up): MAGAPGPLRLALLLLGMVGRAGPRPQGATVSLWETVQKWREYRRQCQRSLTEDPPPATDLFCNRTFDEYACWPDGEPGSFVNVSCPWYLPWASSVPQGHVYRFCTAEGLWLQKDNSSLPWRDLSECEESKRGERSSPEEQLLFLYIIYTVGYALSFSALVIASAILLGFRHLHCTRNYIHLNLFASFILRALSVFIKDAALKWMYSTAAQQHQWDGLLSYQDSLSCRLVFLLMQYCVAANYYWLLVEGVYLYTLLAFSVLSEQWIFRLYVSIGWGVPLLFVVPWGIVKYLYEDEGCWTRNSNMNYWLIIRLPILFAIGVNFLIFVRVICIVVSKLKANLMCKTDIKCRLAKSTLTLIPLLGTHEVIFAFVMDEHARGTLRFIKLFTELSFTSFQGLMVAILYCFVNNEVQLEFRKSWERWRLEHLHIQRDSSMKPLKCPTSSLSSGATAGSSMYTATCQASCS
SMILES,Potency,"activity change, negative = inhibition"
c1ccc(Oc2cnc3ccccc3n2)cc1,inactive,
CCn1c(CNc2ccccc2Cl)nnc1SCC(=O)OC1CCCCC1,"inconclusive: 10 µM [inhibitor, partial curve]",
CCCCC(CC)CNC(=O)CN1C(=O)NC2(CCc3ccccc32)C1=O (configuration not stated),"inconclusive: 11.2 µM [inhibitor, partial curve, poor fit]",
COCc1cccc(-c2csc(C(O)c3ccc(F)cc3)n2)c1 (configuration not stated),"inconclusive: 22.4 µM [inhibitor, single point]",
Fc1ccc(CSc2nnc(-c3ccncc3)o2)cc1,"inconclusive: 12.6 µM [inhibitor, partial curve, poor fit]",
COc1ccc(C(=O)NCCCN2CCOCC2)cc1OC,inactive,
CCOc1ccccc1C(=O)Nc1nc2c(s1)CC(C)CC2 (configuration not stated),inactive,
COc1ccc(Cl)cc1NC(=O)Cn1c(=O)n(CCC(=O)NCc2ccc3c(c2)OCO3)c(=O)c2ccccc21,inactive,
COc1ccc(CC(=O)NCC(=O)N/N=C/c2cc(Br)ccc2OC)cc1,"inconclusive: 10 µM [inhibitor, partial curve, poor fit]",
COc1cc2c(cc1NC(=O)c1cccc(S(=O)(=O)N(C)C)c1)oc1ccccc12,"inconclusive: 0.891 µM [inhibitor, full curve, poor fit]",
Cc1ccc(C(C[N+](=O)[O-])c2c(N)n(C)c(=O)n(C)c2=O)cc1 (configuration not stated),inactive,
CCOC(=O)c1c(C)nc2c(c1-c1ccccc1)C(=O)c1ccccc1-2,inactive,
COc1cccc(CN2CCC2(C)C(=O)Nc2cccc(NS(C)(=O)=O)c2)c1OC (configuration not stated),"inconclusive: 28.2 µM [inhibitor, single point]",
COc1cc(CNc2ncnc3c2ncn3[C@H]2CN(Cc3cccc(C(F)(F)F)c3)C[C@@H](CO)O2)cc(OC)c1OC,"inconclusive: 10 µM [inhibitor, partial curve, poor fit]",
C/C(CC(=O)Nc1cccc(Cl)c1Cl)=N\NC(=O)c1ccccc1N,"inconclusive: 31.6 µM [inhibitor, single point]",
O=C(Cc1ccc(Br)cc1)Nc1ncc([N+](=O)[O-])s1,"inconclusive: 28.2 µM [inhibitor, single point]",
NC(=O)CSc1nnc(-c2cccc(S(=O)(=O)N3CCCCC3)c2)o1,inactive,
COc1ccc(/C=C/C(=O)NC(=S)NNC(=O)c2cccnc2)cc1OC,inactive,
COc1ccc(C(=O)Nc2cc(C(C)C)c(O)c(S(=O)(=O)c3ccc(Cl)cc3)c2C)cc1,"inconclusive: 28.2 µM [inhibitor, single point]",
Cc1[nH][nH]c(=O)c1C(c1ccc(-c2ccc(Cl)c(Cl)c2)o1)c1c(C)[nH][nH]c1=O,"inconclusive: 14.1 µM [inhibitor, single point]",
COc1ccc(C(=O)O/N=C(\N)Cc2ccc(Cl)cc2Cl)cc1OC,active: 8.91 µM,
CC(C(=O)Nc1ccc(OCc2ccccc2)cc1)N1CCCC1 (configuration not stated),"inconclusive: 28.2 µM [inhibitor, single point]",
CCOc1ccc(CN2CCN(C/C=C/c3ccc(OC)cc3)CC2CCO)cc1 (configuration not stated),"inconclusive: 12.6 µM [inhibitor, single point]",

SMILES,Potency,"activity change, negative = inhibition"
O=C(CN1C(=O)NC2(CCOc3ccccc32)C1=O)NCCc1ccccc1 (configuration not stated),inactive,
CCOc1ccccc1CNCc1c(C(=O)O)c(C)n(Cc2ccc(Cl)cc2)c1C,inactive,
O=C(Nc1nnc(C2CC2)s1)C1COc2ccccc2O1 (configuration not stated),"inconclusive: 28.2 µM [inhibitor, single point]",
CCN(Cc1ccccc1)Cc1c(O)ccc2c(=O)c(-c3ccccc3)c(C(F)(F)F)oc12,"inconclusive: 2.24 µM [inhibitor, partial curve, poor fit]",
CCc1ccc(CN2CCC(Oc3ccc(C(=O)N4CCCCC4)cc3)CC2)cc1,"inconclusive: 10 µM [inhibitor, partial curve, poor fit]",
O=C(NCCSCc1cccc(Cl)c1)C1CCN(S(=O)(=O)Cc2ccccc2)CC1,inactive,
c1ccc(-c2nnc(CN3CCN(c4ccccn4)CC3)o2)cc1,inactive,
Cc1ccc(Cl)cc1NC(=O)CSc1ccc(C(=O)O)cn1,inactive,
O=C(NC(=S)NN1CCCCC1c1cccnc1)c1ccc(Br)cc1 (configuration not stated),"inconclusive: 28.2 µM [inhibitor, single point]",
Cc1ccc(C(OCCN(C)C)c2cccc(C(F)(F)F)c2)cc1 (configuration not stated),"inconclusive: 25.1 µM [inhibitor, partial curve, poor fit]",
Cc1ccc(OCC(=O)OCc2cc(=O)n3nc(C4CCCCC4)sc3n2)cc1C,inactive,
O=C1NC(CCc2ccccc2)C(=O)N1CCOc1ccccc1 (configuration not stated),inactive,
CCCCN(CCCNC(=O)c1ccc2nc(N3CCOCC3)sc2c1)Cc1ccccc1,"inconclusive: 10 µM [inhibitor, partial curve, poor fit]",
CNC(=O)c1ccsc1NC(=O)c1ccc2c(c1)CCCC2,"inconclusive: 20 µM [inhibitor, single point]",
CCCCc1ccc(NC(=S)N2CCCC(C)C2)cc1 (configuration not stated),"inconclusive: 11.2 µM [inhibitor, partial curve, poor fit]",
O=S(=O)(Nc1ccccc1N1CCCCC1)c1ccc(F)cc1,"inconclusive: 11.2 µM [inhibitor, partial curve, poor fit]",
CCn1nc(C)c2c(-c3ccccc3)cc(=O)n(C(C)C(=O)NCc3cccc(OC)c3)c21 (configuration not stated),"inconclusive: 11.2 µM [inhibitor, partial curve, poor fit]",
CCC1CCCCN1CCCNC(=O)c1ccc2c(c1)N(Cc1ccccc1)C(=O)c1ccccc1S2(=O)=O (configuration not stated),"inconclusive: 17.8 µM [inhibitor, partial curve, poor fit]",
CCOc1cccc(CC(=O)N2CCc3c([nH]c4ccccc34)C2c2ccccc2)c1OCC (configuration not stated),"inconclusive: 31.6 µM [inhibitor, partial curve, poor fit]",
CCN(CC)c1ccc(CN(C(=O)Cc2coc3ccc(C)cc23)C2CCS(=O)(=O)C2)cc1 (configuration not stated),"inconclusive: 28.2 µM [inhibitor, single point]",
CC(C)Sc1nc2c(c(=O)[nH]c(=O)n2C)n1Cc1ccccc1,inactive,
CCOC(=O)C1=C(COC(=O)/C=C/c2ccc(SC)cc2)NC(=O)NC1C (configuration not stated),"inconclusive: 12.6 µM [inhibitor, partial curve, poor fit]",
Cc1cc(Cl)ccc1NNC(=O)c1snnc1C,active: 2 µM,

SMILES,Potency,"activity change, negative = inhibition"
CC(C)(C)NC(=O)CSc1nc2ccc(NC(=O)CSc3nnnn3Cc3ccccc3)cc2s1,"inconclusive: 10 µM [inhibitor, single point]",
c1ccn2cc(-c3ccc4c(c3)OCCO4)nc2c1,"inconclusive: 1.26 µM [inhibitor, full curve, poor fit]",
CCn1ccnc1CN(C)C(=O)c1cc(COc2ccc(OC)c3ccccc23)on1,"inconclusive: 8.91 µM [inhibitor, partial curve, poor fit]",
COc1ccccc1CN1CCN(C(=O)c2cccc3ccccc23)CC1,active: 11.2 µM,
CCN(C(=O)CN1C(=O)CN(C)C1=O)c1cccc2ccccc12,inactive,
CCc1nc2c(OCC(=O)c3ccc(Cl)cc3Cl)cccn2c1N(C)C(=O)COc1ccccc1,"inconclusive: 28.2 µM [inhibitor, single point]",
Cc1ccc(-c2noc(CSc3nnc(-c4ccncc4)n3-c3ccc(F)cc3)n2)cc1,"inconclusive: 10 µM [inhibitor, partial curve, poor fit]",
CCN(c1ccccc1)c1cc2ccccc2c(=O)[nH]1,"inconclusive: 5.62 µM [inhibitor, full curve, poor fit]",
Cc1cccc(N(Cc2ccccc2)C(=O)c2ccccc2F)c1,"inconclusive: 10 µM [inhibitor, partial curve, poor fit]",
C=CCNC(=S)N/N=C/c1ccc(C)cc1C,,inconclusive: -93.9% [inhibitor] [at 7.66 µM]
Nc1nonc1C(=O)N/N=C/c1cc(Br)ccc1O,"inconclusive: 3.98 µM [inhibitor, full curve, poor fit]",
Cc1cc(Nc2ncc(Cl)cc2Cl)n(-c2ccccc2C)n1,"inconclusive: 28.2 µM [inhibitor, single point]",
COc1ccc(NC(=O)[C@H](C)NC(=O)[C@@H]2Cc3ccccc3CN2C(=O)OC(C)(C)C)cc1,"inconclusive: 28.2 µM [inhibitor, single point]",
CCN(CC)c1ccc(C(=O)OCC(=O)N2CCCC2)cc1,inactive,
COc1ccc(NC(=O)CSc2ncccc2C(=O)O)cc1OC,inactive,
CC(=O)c1sc2c(c1OC(=O)c1ccccc1)c(=O)n(-c1ccccc1)c(=S)n2-c1ccccc1,"inconclusive: 1.78 µM [inhibitor, partial curve, poor fit]",
COc1cc(C(=S)N2CCN(c3ccccc3Cl)CC2)cc(O)c1O,"inconclusive: 10 µM [inhibitor, partial curve, poor fit]",
CCN(CC)CCNC(=O)c1ccc2c(c1)NC(=O)C(CS(=O)(=O)Cc1cccc(Br)c1)N2 (configuration not stated),inactive,
COc1ccc2c(c1)CCO[C@]21O[C@H](CCO)C[C@H](O)[C@H]1O,inactive,
CCCCCCOc1ccc(N2C(=O)CC(N3CCN(C(=O)c4ccco4)CC3)C2=O)cc1 (configuration not stated),"inconclusive: 7.94 µM [inhibitor, partial curve]",
Fc1ccc(-c2ccc3c(c2)C2CC3CCN2Cc2ccc3c(c2)OCO3)cc1 (configuration not stated),"inconclusive: 28.2 µM [inhibitor, single point]",
